In all, about 310,000 compounds went through this assay and about 2,200 (0.71%) showed an effect of 50% or more. Effects have a minus sign here. Some of the results follow.
Target: human ether-à-go-go-related gene (hERG) potassium channel (human, UniProt Q12809)
Experiment: primary screen, population patch clamp on CHO cells stably expressing hERG

human ether-à-go-go-related gene (hERG) potassium channel, sequence (Q12809 whole entry, looked up): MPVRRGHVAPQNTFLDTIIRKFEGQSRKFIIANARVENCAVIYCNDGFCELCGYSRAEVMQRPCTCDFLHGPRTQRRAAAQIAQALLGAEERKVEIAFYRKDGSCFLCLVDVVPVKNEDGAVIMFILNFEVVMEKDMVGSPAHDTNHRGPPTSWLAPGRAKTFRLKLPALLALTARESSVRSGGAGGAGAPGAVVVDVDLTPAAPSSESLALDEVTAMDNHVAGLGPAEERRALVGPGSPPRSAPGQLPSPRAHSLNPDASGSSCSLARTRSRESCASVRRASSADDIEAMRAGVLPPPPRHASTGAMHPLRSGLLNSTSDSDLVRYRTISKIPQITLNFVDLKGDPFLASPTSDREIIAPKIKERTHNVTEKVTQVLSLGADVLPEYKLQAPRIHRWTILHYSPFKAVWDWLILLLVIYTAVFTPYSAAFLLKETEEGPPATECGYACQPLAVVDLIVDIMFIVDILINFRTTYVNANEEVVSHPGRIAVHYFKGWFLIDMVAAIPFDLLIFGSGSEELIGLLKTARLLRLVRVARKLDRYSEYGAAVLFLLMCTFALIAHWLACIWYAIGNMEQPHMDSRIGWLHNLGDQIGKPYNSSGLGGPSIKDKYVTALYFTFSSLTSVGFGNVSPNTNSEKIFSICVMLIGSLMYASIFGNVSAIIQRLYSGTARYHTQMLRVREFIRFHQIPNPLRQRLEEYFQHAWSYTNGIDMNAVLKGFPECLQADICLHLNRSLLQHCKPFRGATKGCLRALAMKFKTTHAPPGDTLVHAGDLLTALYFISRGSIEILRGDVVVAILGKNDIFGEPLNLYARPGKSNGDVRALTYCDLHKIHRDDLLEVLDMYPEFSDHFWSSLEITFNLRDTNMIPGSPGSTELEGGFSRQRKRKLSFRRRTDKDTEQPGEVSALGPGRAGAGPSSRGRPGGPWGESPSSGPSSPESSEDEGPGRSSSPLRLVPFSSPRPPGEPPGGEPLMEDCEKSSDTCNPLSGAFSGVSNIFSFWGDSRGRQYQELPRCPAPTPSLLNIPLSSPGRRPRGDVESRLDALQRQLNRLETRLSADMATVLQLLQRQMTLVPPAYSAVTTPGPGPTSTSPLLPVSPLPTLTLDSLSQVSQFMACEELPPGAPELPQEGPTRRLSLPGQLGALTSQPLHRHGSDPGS

Structure (SMILES)	hERG current change (%, negative = inhibition) at 1uM
CCCSc1ncccc1C(=O)O	12.4%
Cn1c(O)c(/C=C2\C=Nc3ccccc32)sc1=Nc1ccc(C(=O)O)cc1	-6.16%
CC1=NN(C(=S)Nc2ccccc2)C(c2ccccc2)C1 (centres unmarked)	7.61%
Cc1cccc(NS(=O)(=O)c2ccc(C3CCCCC3)cc2)c1	16.6%
CCOC(=O)C1(Cc2cccc(OC)c2)CCN(CC=C(C)C)CC1	12.5%
Cc1ccc(C(=O)NCC(=O)NCCc2ccc(S(N)(=O)=O)cc2)s1	6.16%
CC(=O)NNC(=O)C(O)(c1ccccc1)c1ccccc1	6.17%
CC(C)(C)C(=O)Nc1ccccc1C(=O)NCCC(=O)Nc1ccccc1	5.94%
CC(=O)NC(c1ccco1)c1cc(Cl)c2ccccc2c1O (centres unmarked)	3.56%
COC(=O)c1cccc(C(=O)N2CCC(CO)(Cc3ccccc3Cl)CC2)c1	6.56%
CC(=O)C1=NOC(CNc2ncc(C(F)(F)F)cc2Cl)C1 (centres unmarked)	16.9%
COCCC(=O)N1CCCC(C(=O)c2ccc3c4c(cccc24)CC3)C1 (centres unmarked)	1.52%
Cc1nn2c(NCCCN(C)C)c3c(nc2c1-c1ccccc1)CCC3	-13.4%
NNc1nc2sc3c(c2c(=O)n1-c1ccccc1)CCCC3	10.4%
Cn1c(SCc2cc([N+](=O)[O-])cc3c2OCOC3)nnc1-c1ccccn1	7.91%
COc1ccc(C2CC(=O)C3=C(C2)Nc2ncnn2C3c2ccccc2)cc1 (centres unmarked)	-5.14%
CC(=O)c1c(C)[nH]c(C(=O)OCC(=O)NCCc2ccc(F)cc2)c1C	-1.47%
O=S(=O)(Nc1ccccc1N1CCCCC1)c1ccccc1	-0.354%
Cc1ccc2c(COC(=O)c3ccc(C)c(C)c3)cc(=O)oc2c1	18.9%
CC1=C(C(=O)Nc2ccc(C)cn2)C(c2cnn(C)c2)C2=C(CCCC2=O)N1 (centres unmarked)	11.5%
O=C1C2CCC(C(O)C2)N1Cc1ccccc1 (centres unmarked)	0.542%
COCCNC(=O)C(=O)Nc1cc2c3c(c1)CCC(=O)N3CCC2	53.8%

Structure (SMILES)	hERG current change (%, negative = inhibition) at 1uM
Cc1ccc(S(=O)(=O)c2c(N)n(NC(=O)c3ccco3)c3nc4ccccc4nc23)cc1	5.12%
CC1CCN(C(=O)c2ccc(CSc3nc4ccncc4n3Cc3ccc(F)cc3)cc2)CC1	3.78%
CC(=O)N1CCc2cc(Br)cc(S(=O)(=O)NCCCN3CCC(C)CC3)c21	4.92%
Fc1ccc(Oc2ncccn2)c(F)c1	15.1%
Cc1ccc2c(NC(=S)NC(=O)c3ccccc3)cccc2n1	9.56%
CCCCCCCCCCCC(=O)O	17.5%
O=C(CCc1nnc2ccc(NCc3ccc(F)cc3)nn12)N1CCC2(CC1)OCCO2	18.2%
O=Cc1ccc(N2CCCC2)c(F)c1	3.37%
COc1cccc(NC(=O)c2nn(-c3ccc(OC)cc3OC)c(=O)c3ccccc23)c1	11.7%
CCCCCCn1c(C)nc2c(c1=O)c1nc3ccccc3nc1n2/N=C/c1ccco1	-2.42%
O=C(CN1CCN(c2cccc(Cl)c2)CC1)c1ccc(O)cc1O	9.86%
OCCN1CCN(C(=S)NC2CCCC2)CC1	0.483%
CCOc1ccc(S(=O)(=O)N2CCC(C(=O)N3CCN(C)CC3)CC2)cc1Cl	12.5%
COc1ccccc1C1C2CCCCC2(O)CCN1CC(=O)Nc1ccccc1 (centres unmarked)	-2.02%
COC(=O)CN(c1ccc(F)cc1)S(=O)(=O)c1ccc2c(c1)OCCO2	6.98%
Cc1ccc(S(=O)(=O)CCC(=O)c2ccc(F)cc2)cc1	0.329%
CC1Cc2ccccc2N1CC(=O)NC(c1ccccc1)c1ccccc1.O=C(O)C(=O)O (centres unmarked)	12.3%
CSc1cccc(NC(=O)CCC(=O)O)c1	3.71%
Cc1ccc(CNC(=O)CN(c2ccc(Cl)cc2)S(C)(=O)=O)cc1	13.9%
CC1Cc2cc(/C(O)=C3/C(=O)C(=O)N(CCCN4CCOCC4)C3c3ccc(C(C)C)cc3)ccc2O1 (centres unmarked)	12.7%
O=C(Nc1cccc(-c2nc3ncccc3o2)c1)c1sc2ccccc2c1Cl	18.7%
Cc1ccc(SCc2[nH]nc3c2C2(C(=O)Nc4ccc([N+](=O)[O-])cc42)C(C#N)=C(N)O3)cc1 (centres unmarked)	4.12%

Reference: PMC4336329 (PLoS ONE, 2015)
